According to publication PMC12040169 (PLOS Biology, 2025):
This is one part of the list.

test system: T1, C. trachomatis L2/434/Bu expressing GFP (CTL2-GFP); design: species or system HeLa; C. trachomatis total inclusion area by high-content imaging, normalised to DMSO; conditions: total inclusion area; 28.5 h, 10 µM; inhibitor
T1 construct: L2/434/Bu GFP intracellular growth in HeLa cells
Outline: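 High-content imaging followed the bulk GFP/resorufin measurement: fixed, Hoechst-stained cells were scored for GFP inclusions and host nuclei per well. Total inclusion area and count served as growth proxies, nuclei number as the viability proxy. MIC calculation matched the bulk assay.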

| SMILES | % of control remaining |
| --- | --- |
| O=C(/C=C/c1ccccc1)Nc1cccc(C(=O)O)c1 [CBK287193] | 91.6577 |
| CCC(=O)Nc1nonc1-c1nc2ccccc2n1Cc1ccc(F)cc1Cl [CBK269608] | 107.39 |
| Cc1nc(C2CCN(C(=O)c3cccnc3)CC2)c2sccn12 [CBK282233] | 83.9349 |
| CC(C)C(=O)N(C)c1nnc(-c2cccnc2)s1 [CBK007554] | 65.4881 |
| O=c1ccc(-c2ccccc2)nn1CC1CCNCC1 [CBK284203] | 43.4302 |
| COc1ccccc1-c1nccnc1N[C@H]1CCN(Cc2ccccc2)C1 [CBK037626] | 81.1741 |
| O=C(N/N=C\c1c(F)cccc1Cl)c1ccncc1 [CBK023263] | 77.5676 |
| O=C(C1COc2ccccc2O1)N1CCN(c2ncccn2)CC1 (centres unmarked) [CBK144502] | 79.8074 |
| Cc1cccc(CN2CCC(N(C)Cc3nnc(C4CC4)n3C)C2)c1 (centres unmarked) [CBK305165] | 46.5406 |
| O=S(=O)(Nc1ccccn1)c1cccs1 [CBK043773] | 84.8801 |
| Fc1ccc(-c2cncc(NCCc3cccnc3)n2)cc1Cl [CBK065745] | 90.4794 |
| O=C(CC1C(=O)NCCN1C(=O)Nc1ccc(OCc2ccccc2)cc1)Nc1ccc(F)cc1 (centres unmarked) [CBK086203] | 36.9275 |
| Cc1nn(C)c(C)c1NC(=O)c1ncoc1-c1ccc(F)cc1 [CBK282359] | 60.4807 |
| CN1CCCN(c2cncc(-c3cc4ccccc4o3)n2)CC1 [CBK065997] | 148.49 |
| O=S(=O)(c1cnc(Cl)c(Br)c1)N1CCC2(CC1)OCCO2 [CBK044070] | 84.6666 |
| CS(=O)(=O)c1ccc(CN2C(=O)CC3(CCN(C(=O)c4ccc([N+](=O)[O-])cc4)CC3)C2=O)cc1 [CBK155019] | 97.7078 |
| CN(CC(=O)NCC1CCN(c2cccc(Cl)c2)C1)Cc1cccnc1 (centres unmarked) [CBK306761] | 73.4796 |
| Cc1ccc(-c2cc(C(=O)NCCCN3CCOCC3)c3cc(Cl)ccc3n2)o1 [CBK267737] | 111.593 |
| CC(=O)C1=C(O)C(=O)N(CCCC(=O)O)C1c1ccc(Br)cc1 (centres unmarked) [CBK286784] | 85.3709 |
| Cc1cc(C)nc(-n2ncc3c2CC(c2cccs2)CC3=O)n1 (centres unmarked) [CBK269371] | 113.048 |
| Cc1ccc2nc(C)cc(C(=O)OCc3ccc(C(N)=O)cc3)c2c1 [CBK296676] | 103.211 |
| CNc1cc(C(=O)N[C@@H]2CCOC[C@H]2Oc2ccc(CO)cc2)ccn1 [CBK306606] | 92.9011 |
| O=C1C(=CNCCC(c2ccccc2)c2ccccc2)C(=O)c2ccccc21 [CBK262987] | 113.664 |
| O=C(O)CCCN1C(=O)C(O)=C(C(=O)c2ccc([N+](=O)[O-])cc2)C1c1ccccc1F (centres unmarked) [CBK263810] | 72.1033 |
| O=C(Nc1cccnc1N1CCNCC1)c1cc(F)cc(F)c1 [CBK029420T] | 93.3271 |

| SMILES | % of control remaining |
| --- | --- |
| CN1CCN(C(=O)c2ccc(-c3ccco3)nc2N(C)C)CC1 [CBK106121] | 99.9815 |
| O=C(Nc1ccccc1Nc1cc(-c2ccccc2)nn1-c1ccccc1)c1ccc(Br)cc1 [CBK261297] | 66.658 |
| COc1cccc([C@H]2CN(C(=O)c3ccccc3)[C@@H]3CCN(Cc4ccsc4)C[C@H]23)c1 [CBK285611] | 76.8381 |
| COc1ccccc1CCC(=O)NCc1cnc(SC)n1C [CBK306926] | 42.2977 |
| O=C(CNC(=O)c1ccccc1)N/N=C/c1ccc(C(=O)O)cc1 [CBK261976] | 95.0475 |
| CS(=O)(=O)c1ccc(Cn2ccnc(N3CCN(C(=O)c4ccc5occc5c4)CC3)c2=O)cc1 [CBK153777] | 92.6752 |
| CC(C)N(C(=O)c1ccccc1-c1cnc2nncn2c1)C(C)C [CBK306701] | 59.2879 |
| CC(C)CN(CC(=O)NC1(c2ccccc2)CCC1)C(=O)N(C)C [CBK062704] | 20.6556 |
| O=C(c1ccc(F)cc1)N1CCC(c2cc3cccnc3[nH]2)CC1 [CBK285001] | 110.753 |
| CCC(=O)N1CCC[C@H]1Cn1nc(-c2ccc(F)cc2)ccc1=O [CBK284253] | 90.8547 |
| Cn1ccnc1C1(O)CC2CCC(C1)N2C(=O)Nc1ccccc1F (centres unmarked) [CBK284178] | 91.7511 |
| Cc1ccc(-c2cc(C3CCN(C(=O)c4cnn(C)c4)C3)[nH]n2)cc1 (centres unmarked) [CBK285266] | 89.6123 |
| O=C(/C=C/c1ccccc1)NC(=S)Nc1ccc2oc(-c3ccncc3)nc2c1 [CBK263687] | 92.3761 |
| CO[C@@H]1CO[C@H]2[C@@H]1OC[C@@H]2NC(=O)Nc1ccc(C(C)=O)cc1 [CBK289462] | 116.148 |
| Nc1nonc1-c1noc(-c2cccc(Cl)c2)n1 [CBK026691] | 33.5093 |
| O=C(C1CCC1)N1CCC(c2nc(Cc3cccs3)no2)C1 (centres unmarked) [CBK283028] | 118.229 |
| O=C(O)c1cc2c(s1)CN(C1CCCCC1)C2 [CBK286885] | 101.185 |
| O=C(c1cc(F)c(F)cc1F)N1CCC2(CCN(C(=O)C3COc4ccccc4O3)C2)C1 (centres unmarked) [CBK131390] | 81.7649 |
| COc1cc([N+](=O)[O-])cc2cc(C(=O)NNC(=O)c3ccccc3Cl)c(=O)oc12 [CBK267011] | 109.169 |
| O=c1[nH]c2ccccc2n1C1CCN(S(=O)(=O)c2cccs2)CC1 [CBK149689] | 84.7446 |
| O=C1c2ccccc2NC(c2ccc(O)cc2)N1/N=C/c1ccc(O)cc1 (centres unmarked) [CBK262985] | 93.0074 |
| CC(C)(C)c1cc(C[C@H]2CNCC[C@H]2CC(=O)N2CCN(c3ccccn3)CC2)no1 [CBK288799] | 111.986 |
| O=C(N[C@@H]1CCOC[C@H]1Oc1ccc(CO)cc1)c1ccc(F)cc1 [CBK306571] | 53.5866 |
| O=C1c2ccccc2CN1c1ccc(Cl)cc1Cl [CBK109908] | 73.0193 |
| c1csc(CN2CCC[C@H]2c2nc(-c3ccc(-n4ccnc4)nc3)no2)c1 [CBK288895] | 87.7436 |
